Results published in PubChem BioAssay AID651820 (National Center for Advancing Translational Sciences (NCATS), 2012).
The campaign covered roughly 340,000 compounds. About 12,000 (3.5%) were called active. The inconclusive results got no clear call from the source; some entries with a clear call stand among them for comparison. Calls follow the shape of the dose curve; as a rule, active = well fitted inhibition curve with a large enough effect; inconclusive = small, poorly fitted or top-dose-only effect, or another doubt; inactive = no such curve, though single readings can be large or run the other way. No potency is given beside an inconclusive call; the fits are too rough. A structure can be active in one record and inactive in another. Residues, ends and D or L forms follow the SMILES beside them. *: point of attachment. Boc = CC(C)(C)OC(=O)*; Bn = c1ccc(C*)cc1

Assay: qHTS Assay for Inhibitors of Hepatitis C Virus (HCV)
Conditions: Huh7.5.1 HCVcc-Cre (HCVcc is cell-culture hepatitis C virus) infection, luciferase reporter, 44 h; series mostly up to 41.8 µM
Summary of the method: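 Compounds are dispensed onto cells plated 4 h earlier at 1,000 per well, with HCVcc-Cre virus (about 0.5 moi) added next. Following 44 h of culture, luminescent signal is measured for 15 sec after 15 min with substrate at room temperature.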
Potency is read from the fitted curve at half-maximal effect; tags tell the direction and shape of the fitted curve.

Compound	Potency
CCCn1c(=O)c(C(=O)NCc2cccnc2)c(O)c2ccccc21	inconclusive [inhibitor, partial curve, poor fit]
c1ccc2c(c1)CCOC2CNCCCN1CCCCC1 (stereo not given)	inconclusive [inhibitor, full curve]
CCN(c1ccccc1)S(=O)(=O)c1ccc(C(=O)NCC2(N(C)C)CCCCC2)cc1	inconclusive [inhibitor, partial curve]
Cc1ccc(S(=O)(=O)NCc2ccncc2)cc1C	active: 2.24 µM
COc1ccc(CN2CCN(C(C)C(=O)N(C)Cc3cccc(F)c3)CC2)cc1OC (stereo not given)	inconclusive [inhibitor, single point]
CN(C)CCCNCC(=O)NN(c1ccccc1)c1ccccc1	inactive
CCN1CCN(C(=O)CN(CC)S(=O)(=O)c2ccc(F)cc2)CC1	inactive
Cc1cc(CNC(=O)c2cccc(OC3CCN(S(=O)(=O)N(C)C)CC3)c2)on1	inconclusive [inhibitor, single point]
S=c1[nH]cnc2sc(Nc3ccccc3)nc12	inactive
COc1ccc(CCNC(=O)c2ccc(Cl)c(S(=O)(=O)N(C)c3ccccc3)c2)cc1	active: 3.55 µM
O=C(NC(Cc1ccccc1)C(=O)NC(Cc1ccccc1)C(=O)O)c1ccccc1 (stereo not given)	inactive
O=C(NCC(=O)N1CCC2(CC1)NCCc1[nH]cnc12)c1cccc(Cl)c1	inactive
CCOc1ncccc1C(=O)OCC(=O)N1CC(=O)Nc2ccccc21	inconclusive [inhibitor, single point]
CC(=O)Nc1ccc2nc(-c3ccc(Br)o3)[nH]c2c1	inactive
O=C(O)c1cc(S(=O)(=O)Nc2ccc(OCc3ccccc3)cc2)ccc1Br	inactive
O=C(NCc1cccnc1)C1CCN(S(=O)(=O)c2cc([N+](=O)[O-])ccc2Cl)CC1	inactive
Cc1cc(NC(=O)CCN2CCN(C/C=C/c3ccccc3)CC2)ccc1Br	inconclusive [inhibitor, single point]
COc1ccc(CNC(=O)c2ccc(Cl)c(NC3=NC4CS(=O)(=O)CC4S3)c2)cc1 (stereo not given)	inactive
COc1cc2nc(NCCCN3CCN(C)CC3)n3nc(-c4ccccc4)nc3c2cc1OC	inconclusive [inhibitor, partial curve, poor fit]
CC1(C)Cc2c(sc(NC(=O)c3ccc(C(=O)c4ccccc4)cc3)c2C(N)=O)C(C)(C)N1	inconclusive [inhibitor, single point]
O=C(C1CCC(CNS(=O)(=O)c2cccc3nsnc23)CC1)N1CCN(c2ccccn2)CC1 (stereo not given)	inconclusive [inhibitor, single point]
CCc1cc(C(=O)N2CCN(c3ncccn3)CC2)sc1C	inactive
CC(C)NC(=S)N/N=C1\CCCCc2ccccc21	inconclusive [inhibitor, single point]
Cc1ccccc1NC(=O)/C(=C/c1ccccc1)c1ccccc1	inconclusive [inhibitor, single point]

Compound	Potency
CO/N=C/c1ccc(N2CCN(C(=O)c3cccc(Cl)c3)CC2)c([N+](=O)[O-])c1	inconclusive [inhibitor, single point]
Cc1ccc(Nc2nc(NCc3ccco3)c3ccccc3n2)cc1	active: 3.55 µM
Clc1cccc(CON/C=N/c2ncnc3sccc23)c1	inconclusive [inhibitor, partial curve]
Cc1ccccc1OCC(O)Cn1c2ccccc2c2ccccc21 (stereo not given)	active: 7.94 µM
CN1CCN(C(=S)c2cn(Cc3ccc(Br)cc3)c3ccccc23)CC1	inconclusive [inhibitor, single point]
CNc1ncc(C(=O)c2ccccc2)s1	inactive
Cc1cc(C)c(Nc2ncnc(N)n2)c(C)c1	inactive
OCCC1CN(Cc2nc(-c3ccccc3)cs2)CCN1Cc1ccc(F)cc1 (stereo not given)	inconclusive [inhibitor, full curve, poor fit]
O=C(CSc1nc2ccccc2c(=O)n1Cc1ccco1)N1CCN(c2ccccc2)CC1	inconclusive [inhibitor, single point]
Cc1nn(Cc2ccccc2)c(Cl)c1/C=C/C(=O)OCC(=O)NC(C)C(C)C (stereo not given)	inconclusive [inhibitor, partial curve]
CCOC(=O)CC(=O)NC(C)(C)CCCCC(C)(C)NC(=O)CC(=O)OCC	inactive
CN(Cc1cccs1)C(=O)Cc1csc(-c2ccccc2)n1	inactive
Cc1cc(NC(=O)CSc2nc3cc(C(=O)NCCCOC(C)C)ccc3c(=O)n2Cc2ccco2)no1	active: 7.08 µM
CCc1ccc(-c2c(C)sc(NC(C)=O)c2C(N)=O)cc1	inconclusive [inhibitor, single point]
COc1cc(CN2CCN(C(=O)COc3ccccc3)CC2)cc(OC)c1OC	inconclusive [inhibitor, single point]
Cc1nc2nc(C)n(CCN3CCOCC3)c(=O)c2c(-c2cccc([N+](=O)[O-])c2)c1C(=O)CCCCCCCCCCN1CCC(c2ccccc2)(c2ccccc2)CC1	inconclusive [inhibitor, full curve]
CCN1CCN(CCNC(=O)c2ccc3c(c2)N(Cc2ccc(F)cc2)C(=O)c2ccccc2S3=O)CC1 (stereo not given)	inconclusive [inhibitor, single point]
CN(c1ccccc1)S(=O)(=O)c1ccc(NC(=O)c2nc(S(C)(=O)=O)ncc2Cl)cc1	active: 10 µM
O=C(CSc1nc(C2CCCCC2)nc2ccccc12)NCc1ccco1	inconclusive [inhibitor, single point]
COC(=O)c1ccc2c(=O)n(CCCCCC(=O)O)c(=O)[nH]c2c1	inactive
COc1ccccc1CN1CC(C(=O)NCCc2ccc(C)o2)CCC1=O (stereo not given)	inactive
CCOc1ccccc1NC(=O)c1cccc(S(=O)(=O)N(Cc2ccccc2)c2ccccc2OC)c1	inconclusive [inhibitor, full curve]
CC(C)=CCCC(C)CN1CCC(N2CCC(C(=O)NC(C)C)CC2)CC1 (stereo not given)	active: 2.82 µM
C=CCSC1=N/C(=C\c2cccnc2)C(=O)N1c1ccc(OC)cc1	inconclusive [inhibitor, single point]

Compound	Potency
O=[N+]([O-])c1cc(S(=O)(=O)Nc2ccccc2)ccc1N1CCN(c2ccccc2)CC1	active: 12.6 µM
CCOP(=O)(Nc1ccc2oc(=O)c3ccccc3c2c1)OCC	inconclusive [inhibitor, partial curve]
Cc1ccccc1NC(=S)NC(NC(=O)c1ccccc1C)C(Cl)(Cl)Cl (stereo not given)	inconclusive [inhibitor, single point]
Cc1ccc(C(=O)C2=C(O)C(=O)N(Cc3ccco3)C2c2cccc(Cl)c2)o1 (stereo not given)	inactive
CC(Oc1cc2oc(=O)c3c(c2cc1Cl)CCC3)C(=O)NCCN1CCOCC1 (stereo not given)	inactive
COc1ccccc1/C=C/C(=O)Oc1cccc2cccnc12	inactive
CN(CC(=O)Nc1ccc(Cl)c(C(F)(F)F)c1)C(=O)C1CC(=O)N(CCc2ccccc2)C1 (stereo not given)	inconclusive [inhibitor, single point]
Cc1ccc2cc(C#N)c(N3CCN(C(=O)c4ccccc4)CC3)nc2c1	inconclusive [inhibitor, partial curve]
COc1ccc(C2NN=C(c3c[nH]c4ccccc34)C2O)cc1 (stereo not given)	active: 11.2 µM
O=C(CSC(=S)N1CCCCC1)Nc1nc(-c2ccccc2)c(-c2ccccc2)o1	inconclusive [inhibitor, partial curve]
Cc1cc(C)cc(NC(=O)C2(c3ccccc3)CC2(Cl)Cl)c1 (stereo not given)	inactive
COc1cccc(NC(=O)CSc2nn3c(=O)c(C)nnc3s2)c1	inactive
CC(C)CC(NC(=O)C(Cc1ccc(OCc2ccccc2)cc1)NC(=O)OC(C)(C)C)C(N)=O (stereo not given) (Boc-Tyr(Bn)-Leu-NH2; configuration not given here)	inconclusive [inhibitor, single point]
Cc1cc2c(NC(=O)Nc3ccccc3)cccc2nn1	inconclusive [inhibitor, single point]
COc1ccc(OC)c(S(=O)(=O)Nc2ccc3oc4c(c3c2)C(=O)CCC4)c1	inconclusive [inhibitor, single point]
O=C(O)c1cc(O)c2c(c1)[C@H]([C@H]1c3cc(C(=O)O)cc(O)c3C(=O)c3c(O[C@@H]4O[C@H](CO)[C@@H](O)[C@H](O)[C@H]4O)cccc31)c1cccc(OC3O[C@H](CO)[C@@H](O)[C@H](O)[C@H]3O)c1C2=O (stereo not given in full)	active: 0.355 µM
CN(CC(=O)Nc1ccc(F)cc1)c1ccc(S(=O)(=O)N2CCCCC2)cc1[N+](=O)[O-]	inconclusive [inhibitor, partial curve]
C#CCNC(=O)C1=C[C@H](c2cn(C(C)=O)c3ccccc23)C[C@H](OCc2ccc(CO)cc2)O1	inconclusive [inhibitor, single point]
C=CCOc1c(CNc2ccc(C(=O)O)cc2)cccc1OC	inactive
N#CC1(NC(=O)COc2ccc3ccc(=O)oc3c2)CCCCC1	inconclusive [inhibitor, partial curve]
CCN1CCCC(OC(=O)c2cc(-c3ccc(C)cc3)nc3ccccc23)C1 (stereo not given)	inconclusive [inhibitor, single point]
CCC(C)NC(=O)c1cc2cc3ccc(OC)cc3nc2o1 (stereo not given)	inconclusive [inhibitor, full curve, poor fit]
